Reference: PubChem BioAssay AID588342 (National Center for Advancing Translational Sciences (NCATS), 2011)
Among all 360,000 compounds or so, about 25,000 (6.9%) were called active. The inconclusive results got no clear call from the source; some entries with a clear call stand among them for comparison. The call rests on the fitted dose curve; in most records, active means well fitted inhibition curve with a large enough effect; inconclusive means small, poorly fitted or top-dose-only effect; inactive means flat fitted curve, though single readings scatter. A potency beside an inconclusive call is a rough fit, not a confirmed value.

Target: Luciferin 4-monooxygenase (Photinus pyralis) (UniProt P08659)
Test: qHTS profiling assay for firefly luciferase inhibitor/activator using purifed enzyme and Km concentrations of substrates (counterscreen for miR-21 project); further: nearly all actives have a fitted effect of over 55% in size
Settings: purified FLuc, luminescence inhibition; series mostly up to 57.5 µM
Outline: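 Biochemical qHTS of compounds, final roughly 60 µM downward over six points, against 10 nM purified firefly luciferase using Km concentrations of substrates (10 uM D-luciferin, 10 uM ATP) in Tris acetate pH 7.5 buffer; luminescence output.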
Potency means the concentration at half of the fitted maximal effect; tags describe the fitted curve by direction and shape.

Sequence of UniProt P08659 (P08659 whole entry, looked up): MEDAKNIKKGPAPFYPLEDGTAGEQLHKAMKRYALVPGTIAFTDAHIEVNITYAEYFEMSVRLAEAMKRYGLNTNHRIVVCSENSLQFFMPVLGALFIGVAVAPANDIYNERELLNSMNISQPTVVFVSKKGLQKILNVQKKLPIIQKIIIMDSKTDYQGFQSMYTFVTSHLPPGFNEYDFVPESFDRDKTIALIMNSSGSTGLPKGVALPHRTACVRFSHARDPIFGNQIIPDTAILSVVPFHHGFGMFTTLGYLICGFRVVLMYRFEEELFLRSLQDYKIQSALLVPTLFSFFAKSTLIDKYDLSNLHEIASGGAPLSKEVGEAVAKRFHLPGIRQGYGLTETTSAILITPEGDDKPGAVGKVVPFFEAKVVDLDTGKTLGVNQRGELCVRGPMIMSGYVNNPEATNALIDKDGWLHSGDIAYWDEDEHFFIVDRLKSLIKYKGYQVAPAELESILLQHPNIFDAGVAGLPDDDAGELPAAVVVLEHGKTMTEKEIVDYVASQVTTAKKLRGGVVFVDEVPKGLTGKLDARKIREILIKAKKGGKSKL

Structure (SMILES) | Potency
Cc1cc(C)cc(N2CCn3c2nc2c3c(=O)n(CCCc3ccccc3)c(=O)n2C)c1 | inactive
BrC(=C\c1ccccc1)/C=N/N1CCN(c2ccccn2)CC1 | inconclusive: 15.1 µM [inhibitor, partial curve]
O=C(C(=O)N1CCc2ccccc2C1)c1c[nH]c2ccccc12 | inconclusive: 37.9 µM [inhibitor, partial curve, poor fit]
CC(=O)N(CCC(Cc1ccccc1)c1ccco1)Cc1ccco1 (stereo unspecified) | inconclusive: 37.9 µM [inhibitor, partial curve, poor fit]
Cc1ccsc1CN1CCc2nc(N3CCN(c4ccccc4F)CC3)ncc2C1 | inactive
O=C(NCC(=O)N1CCc2ccccc2C1)c1ccccc1Cl | inconclusive: 37.9 µM [inhibitor, partial curve, poor fit]
COc1ccccc1NC(=O)COC(=O)c1ccc(S(=O)(=O)NCc2ccco2)cc1 | active: 12 µM
CN(C)/C=C(\C#N)C(=O)Nc1ccc(F)cc1 | inconclusive: 37.9 µM [inhibitor, partial curve, poor fit]
CC(C)CN(CCNC(=O)c1cc(-c2ccc(Cl)s2)nc2ccccc12)CC(C)C | inactive
Cc1cc(O)ccc1Nc1nc(-c2cccnc2)cs1 | active: 6.01 µM
CCN(CC)C(=O)OCc1c(-c2ccccc2)ncc2ccccc12 | inconclusive: 12 µM [inhibitor, single point]
O=C1Cc2ccccc2N1c1ccccc1 | inactive
COc1ccc(N(CC(=O)Nc2nc3ccc(C)cc3s2)S(=O)(=O)c2c(C)nn(C)c2C)cc1 | inconclusive: 26.9 µM [inhibitor, partial curve, poor fit]
C=COC(=O)c1sc2nc(C)cc(C)c2c1N | inconclusive: 3.38 µM [inhibitor, full curve]
O=C(Nc1ccc(C(F)(F)F)cc1)N1CCC(N2CCCCC2)CC1 | inactive
CSc1nnc(C)c(/C=C/Nc2ccc(C)cc2)n1 | inconclusive: 37.9 µM [inhibitor, partial curve, poor fit]
CCCCOc1ccc(-c2nnn(CC(=O)NCc3ccco3)n2)cc1 | inconclusive: 2.13 µM [inhibitor, full curve]
O=C(c1ccc(F)cc1)n1cc(C(=S)N2CCOCC2)c2ccccc21 | inactive
CC1(C)CNC(=O)c2sc(NC(=O)c3ccccc3)nc2C1 | inconclusive: 9.53 µM [inhibitor, partial curve]
Cc1onc(-c2ccccc2)c1NC(=O)N(Cc1ccccc1)C(C)C | inactive
NN/C(=C\[N+](=O)[O-])Nc1ccccc1 | inconclusive: 30.1 µM [inhibitor, partial curve, poor fit]
CCOc1ccc(NC(=O)c2c(NC(=O)c3cccs3)sc3c2CCC(C(C)(C)C)C3)cc1 (stereo unspecified) | inactive
Cc1ccc2oc(-c3cc(NC(=O)/C=C/c4ccco4)ccc3Cl)nc2c1 | inconclusive: 12 µM [inhibitor, partial curve, poor fit]
Fc1ccc(CSc2nnc3ccccn23)c(Cl)c1 | inconclusive: 30.1 µM [inhibitor, partial curve, poor fit]

Structure (SMILES) | Potency
Oc1ccc2oc3c(c2c1)CCCC3 | inconclusive: 21.3 µM [inhibitor, single point]
COc1ccc(-c2nnc(SCC(=O)Nc3cccc(Cl)c3)o2)cc1 | inactive
O=[N+]([O-])c1ccc(CSc2ccccn2)cc1 | inconclusive: 30.1 µM [inhibitor, single point]
Brc1ccc2nc(SCCOc3ccccc3)[nH]c2c1 | inconclusive: 26.9 µM [inhibitor, single point]
O=C1OC(C(=O)Nc2nccs2)Cc2ccccc21 (stereo unspecified) | inconclusive: 23.9 µM [inhibitor, partial curve, poor fit]
N#CCCn1ccc(NC(=O)c2ccc(Cl)cc2)n1 | inconclusive: 37.9 µM [inhibitor, partial curve, poor fit]
Cc1ccc2c(c1)N(C(=O)Nc1cccc3c1CCCC3)CC(C)O2 (stereo unspecified) | inactive
Cc1nn2cc(-c3ccc(Cl)cc3)cnc2c1Cl | inconclusive: 1.51 µM [inhibitor, full curve]
Cc1cccc(-c2nn(-c3ccccc3)cc2C(=O)NCC(c2cccs2)N2CCOCC2)c1 (stereo unspecified) | inconclusive: 16.9 µM [inhibitor, partial curve]
CCn1c(C)cc(C=C2C(=O)c3ccccc3C2=O)c1C | active: 0.478 µM
C[C@]12CC[C@@H]3c4ccc(O)cc4CC[C@H]3[C@@H]1CC[C@@H]2OC(=O)CCC(=O)O | inconclusive: 19 µM [inhibitor, partial curve, poor fit]
COc1ccc(S(=O)(=O)Nc2nc3c(s2)CCCC3)cc1 | inconclusive: 37.9 µM [inhibitor, partial curve, poor fit]
Cc1csc(=O)n1CCC(=O)OCC(=O)Nc1ncc(Cl)cc1Cl | inactive
O=C(Nc1ccc(F)cc1)c1ccc(CSc2ccccc2)o1 | active: 15.1 µM
Cc1[nH]c2ccccc2c1C(=O)NS(=O)(=O)Nc1ccc(Cl)cc1 | inconclusive: 15.1 µM [inhibitor, partial curve]
CCC(C)(C)C1CCc2c(sc(NC(=O)c3ccccc3C(=O)O)c2C#N)C1 (stereo unspecified) | active: 10.7 µM
COc1cc(/C=N/NC(=O)c2cc(O)cc(O)c2)ccc1OC(=O)c1ccccc1 | inconclusive: 37.9 µM [inhibitor, partial curve, poor fit]
C[C@H](NC(=O)c1cc2c(cn1)[nH]c1ccccc12)C(=O)O | inconclusive: 26.9 µM [inhibitor, single point]
O=C(COc1ccccc1[N+](=O)[O-])N/N=C/c1ccc(O)c([N+](=O)[O-])c1 | inconclusive: 26.9 µM [inhibitor, partial curve, poor fit]
CCC1CCCCN1C(=O)COC(=O)c1cc(C)nc2ccccc12 (stereo unspecified) | inconclusive: 21.3 µM [inhibitor, partial curve, poor fit]
O=C(c1cccs1)N1CCC(Cc2ccccc2)CC1 | inconclusive: 37.9 µM [inhibitor, partial curve, poor fit]
O=C(Cc1cccc2ccccc12)Nc1ccc(OC(F)F)c(Cl)c1 | inconclusive: 23.9 µM [inhibitor, single point]
Cc1ccc(-c2cc(=O)[nH][nH]2)c(C)c1 | inactive
COc1ccc(C(=O)O/N=C2\CCS(=O)(=O)c3sccc32)cc1 | active: 1.9 µM

Structure (SMILES) | Potency
Cc1ccnc(NS(=O)(=O)c2ccc(NC(=O)c3nc(SC(C)C)ncc3Cl)cc2)n1 | inconclusive: 30.1 µM [inhibitor, partial curve, poor fit]
Cc1nc2ccccn2c1C(=O)NNC(=S)Nc1ccc(Cl)cc1 | inconclusive: 37.9 µM [inhibitor, single point]
O=C1CCN(C(=O)/C=C/c2ccccc2)c2ccccc21 | inconclusive: 21.3 µM [inhibitor, single point]
CC1(c2ccccc2)NC(=S)N2C1NC(=S)N2c1ccccc1 (stereo unspecified) | inactive
COc1ccc(C(=O)Nc2ccccc2)cc1NC(=O)c1cccs1 | inconclusive: 23.9 µM [inhibitor, partial curve, poor fit]
COc1cccc(CNC(=O)c2ccc3c(c2)nc2n3CCC(C)C2)c1OC (stereo unspecified) | inconclusive: 30.1 µM [inhibitor, partial curve, poor fit]
c1ccc(N2CCN(c3ccccc3)C2c2cccs2)cc1 | inconclusive: 30.1 µM [inhibitor, single point]
CC(C)C1N=C(c2ccc3c(c2)OCO3)CC(c2ccccc2O)N1 (stereo unspecified) | active: 10.7 µM
COc1ccc(Nc2nc(-c3ccc(OC)cc3)c(CCC(=O)O)s2)cc1 | inconclusive: 19 µM [inhibitor, partial curve, poor fit]
COc1ccccc1N1CCN(C2CCCN(C(=O)CCc3cnn(C)c3)C2)CC1 (stereo unspecified) | inactive
COc1ccc(N(CC(=O)NC2CCCC2)C(=O)Cn2nnc(-c3ccc(OC)c(OC)c3)n2)c(OC)c1 | inactive
Cc1nc2cc(CO)ccc2s1 | inactive
O=C(CSc1ccc(-c2ccco2)nn1)Nc1ccccc1F | inconclusive: 21.3 µM [inhibitor, partial curve]
Cc1ccc(S(=O)(=O)N2CCC(n3c(C)nc4cccnc43)CC2)c(C)c1 | inconclusive: 9.53 µM [inhibitor, partial curve]
O=C(c1ccccc1)c1ccc2nc[nH]c2c1 | inconclusive: 37.9 µM [inhibitor, partial curve, poor fit]
Cc1cccc(NC(=O)CN2CCN(C(=O)c3ccc(-c4nc5ccccc5s4)o3)CC2)c1C | active: 23.9 µM
Cc1ccc(S(=O)(=O)c2cn(Cc3ccc(F)cc3)c3cc(N4CCCC4)c(F)cc3c2=O)cc1 | inactive
COc1ccc(C(=O)Nc2ccc(S(=O)(=O)NC(C)=O)cc2)cc1 | inconclusive: 30.1 µM [inhibitor, partial curve, poor fit]
Cc1cc(C)cc(OCCNC(=O)c2cc(S(=O)(=O)N3CCOCC3)ccc2F)c1 | inactive
O=C1CCNc2ccc(-c3ccccc3)cc21 | active: 15.1 µM
COc1ccc2[nH]c(O)c(N=NC(=O)Cc3cccs3)c2c1 | inconclusive: 26.9 µM [inhibitor, single point]
Cc1ccc(C(=O)COC(=O)C(C)N2C(=O)C3C4C=CC(C4)C3C2=O)cc1 (stereo unspecified) | inconclusive: 16.9 µM [inhibitor, partial curve]
CC(C)(C)OC(=O)N1CCC(c2c(C(=O)N3CCOCC3)cnn2-c2cccc(F)c2)CC1 | inactive
